Measurements published in PubChem BioAssay AID1963576 (National Center for Advancing Translational Sciences (NCATS), 2024).
Hit rate of the full screen: of about 46,000 compounds, about 60 (0.1%) were called active. Not shown: some 3% with an inconclusive outcome. The call rests on the fitted dose curve; in most records, active means well fitted inhibition curve with a large enough effect; inconclusive means small, poorly fitted or top-dose-only effect; inactive means no such curve, though single readings can be large or run the other way. This is one part of the list.

Assay: Primary qHTS assay for Inhibitors of ovarian cancer metastasis using an organotypic tumor microenvironment (TME) model. Further: nearly all actives have a fitted effect of over 65% in size.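 On activity change, negative = inhibition: plate controls were DMSO wells for no effect and tomatine positive control wells for full effect.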
Settings: SKOV3ip1-GFP adhesion/invasion on 3D omental model, fluorescence; series mostly up to 45.8 µM; activity change, negative = inhibition: at the top concentration
In short: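 Adhesion/invasion was scored as fixed GFP-labeled SKOV3ip1 cell counts (488/509 nm), normalized to DMSO and tomatine controls. Cancer cells in serum-free medium, with four compound doses (0.36-46 umol/L), sat 2 hr at RT then 16 hr at 37 C on a 48 hr fibroblast/mesothelial/ECM culture.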

Activity change, negative = inhibition, inactive:
N#Cc1ccccc1NC(=O)C(=O)NCC(c1ccc2c(c1)OCO2)N1CCN(c2ccccc2)CC1 (stereo not given) -12.2%, Cc1nc2cccnc2n1-c1cccc(C(=O)NCCc2ccc(Cl)cc2)c1 -0.0499%, CC(C)(C)c1ccc(NC(=O)CSc2nnc3scc(-c4ccccc4)n23)cc1 1.91%, CSc1ncc(C(=O)Nc2ccccc2C(=O)c2ccccc2)c(C)n1 1.86%, Cn1cnc(S(=O)(=O)N2CCC(C(=O)N3CCN(c4cccc(C(F)(F)F)c4)CC3)CC2)c1 3.12%, O=C(Nc1c(C(=O)c2ccccc2)oc2ccccc12)c1cc(=O)c2ccccc2o1 9.34%, CCOC(=O)c1c(C)[nH]c(C)c1S(=O)(=O)NCC(=O)N(C)c1ccc(C)c(C)c1 10.5%, Cn1c(=O)oc2cc(S(=O)(=O)CCC(=O)N3CCN(c4ccccc4)CC3)ccc21 9.91%, COc1ccc(OC)c(NC(=O)CSc2ccnc(=O)[nH]2)c1 -2.15%, COc1ccc(NC(=O)c2c(NCc3ccc(C)o3)sc3c2CCC(C)C3)c(OC)c1 (stereo not given) 1.72%, COc1ccc(C(=O)NCc2nnc(SCC(=O)Nc3ccccc3)n2-c2ccc(F)cc2)cc1 -7.64%, COc1ccc(C2CC(c3c(O)n(C4CCCCC4)c(=O)[nH]c3=O)=Nc3ccccc3S2)cc1 (stereo not given) -2.36%, COC(=O)c1c(-c2ccc(Cl)cc2)noc1N1CCN(c2ccc(OC)cc2)CC1 10.6%, COc1ccccc1N1CCN(S(=O)(=O)c2c(C)sc3ncn(CC(=O)Nc4cccc(Cl)c4)c(=O)c23)CC1 0.731%, COc1cc(OC)c(Nc2cc(C)nc3ncnn23)cc1Cl -13.1%, CCc1nn2c(=O)cc(COC(=O)CNC(=O)c3ccccc3)nc2s1 -28.7%, O=C(COc1ccccc1F)OCc1cc(=O)n2nc(-c3cccs3)sc2n1 -1.71%, COc1ccccc1CNC(=O)c1ccc(N2CCCC2)c(NC(=O)NCc2ccccc2)c1 2%, Cc1cccc(CNS(=O)(=O)c2ccc3[nH]c(=O)ccc3c2)c1 14.1%, CC1CCCCN1CCCNC(=O)Cn1ncc2c([nH]c3ccccc32)c1=O (stereo not given) 6.46%, Cc1ccccc1CNC(=O)C1CCN(c2nn3cc(-c4ccc(F)cc4)nc3s2)CC1 8.36%, CCC(CC)c1nn2c(=O)cc(COc3ccc(NC(=O)c4ccccc4Cl)cc3)nc2s1 8.92%, NC(=O)c1cc(S(=O)(=O)N2CCN(c3ccc(F)cc3)CC2)cs1 3.28%, COc1ccc(C)cc1NC(=O)c1cc(S(=O)(=O)NC2CCCCCC2)ccc1F 12.1%, CCOC(=O)c1cnc2cc(-c3ccc(Cl)cc3)nn2c1-c1ccccc1 -5.11%, CC(C)Cn1c(=O)c2ccccc2n2c(CCC(=O)Nc3cccc(Cl)c3)nnc12 10.6%, CC(=O)c1cc(-c2ccccc2)n(CC(=O)NC2CCCCC2)c1C 2.86%, COc1ccc(-c2cnnn2-c2ccc(NC(=O)c3ccc(S(=O)(=O)N(C)C)cc3)cc2)cc1 8.03%, COc1ccc(-c2cnnn2-c2ccc(NC(=O)c3c(F)cccc3F)cc2)cc1 -5.3%, COc1cc(-c2nnc(SCC(=O)NCc3ccccc3Cl)o2)cc(OC)c1OC 12.5%, CCOc1ccc(Cn2nnc3c(=O)[nH]c(C4CCN(C(=O)c5ccccc5)CC4)nc32)cc1 2.67%, O=C(Cc1ccc(F)cc1)NC1CC(=O)N(c2ccccc2)C1 (stereo not given) -1.18%, CCOc1ccccc1/C=C/c1onc(C)c1S(=O)(=O)N1CCC(C(=O)N(CC)CC)CC1 -0.55%, O=C1Nc2c(c(=O)[nH]c(=O)n2-c2ccccc2)C1(NS(=O)(=O)c1ccc(Cl)cc1)C(F)(F)F (stereo not given) -1.69%, Cc1ccc(C(=O)NCCn2c(C)cc3ccccc32)cc1C 7.07%, COc1cc2c(=O)n(CCC(=O)NCC3CCCO3)c(=O)n(CC(=O)Nc3ccc(C)cc3)c2cc1OC (stereo not given) 4.62%, CC(=O)c1ccc(NC(=O)c2cn3c4c(ccc(Cl)c4c2=O)OC(C)C3)cc1 (stereo not given) 2.02%, Cc1cc(C)cc(-n2nnc(-c3nc(-c4ccc5c(c4)OCO5)no3)c2C)c1 -2.67%, O=C1CN(C(=O)c2ccc(S(=O)(=O)N3CCCCC3)cc2)C(c2ccc(F)cc2)c2cc(F)ccc2N1 (stereo not given) -1.58%, COc1cccc(C(=O)NCCSc2c(-c3ccc(F)cc3)[nH]c3ccccc23)c1OC 17.6%, Cc1c(NC(=O)c2ccc(OC(C)C)cc2)cccc1-c1nc2ncccc2o1 6.56%, CC(Oc1ccc(F)cc1)C(=O)NCC1(N(C)C)CCCCC1 (stereo not given) -0.317%, COc1ccc(-c2cc(C(F)(F)F)c(C#N)c(SCC(=O)Nc3ccc(F)cc3)n2)cc1 11.1%, Cc1ccc(S(=O)(=O)N2CCCc3cc(NS(=O)(=O)c4ccc(F)c(C)c4)ccc32)cc1 -4.92%, COc1ccc(-c2cn3nc(N4CCC(C(=O)NCc5ccccc5F)CC4)sc3n2)cc1 -4.96%, CCCS(=O)(=O)Nc1cc(-c2cn3cccc(C)c3n2)ccc1C -22%, CC(C)Oc1ccc(CNC(=O)CCCn2c(=O)c3cccn3c3ccccc32)cc1 -0.759%, CCc1ccc(CNC(=O)c2ccc3c(c2)N=C(C)c2cc(C)ccc2S3)cc1 0.527%, CCOC(=O)c1c(NC(=O)CS(=O)(=O)c2ccc(C)cc2)sc2c1CCCCC2 -9.99%, Cn1c(N2CCCCS2(=O)=O)nc(C(=O)NCc2ccc(F)cc2)c(O)c1=O -4.96%, COc1ccc(CNc2ncnc3onc(C)c23)cc1 -0.106%, CCCNC(=O)c1ccc2c(c1)ncn2-c1ccc(C)cc1C -4.16%, COc1ccc(NC(=O)Cn2c(=O)oc3cc(S(=O)(=O)NC4CCCC4)ccc32)cc1OC -2.16%, Cc1ccc(-c2nc3cccnc3s2)cc1NC(=O)C(C)C 1.24%, CC1=Nc2cc(C(=O)NCCc3ccc(Cl)cc3)ccc2Sc2ccc(C)cc21 -4.31%, Clc1ccc(-c2nc3sccn3c2C=NOCc2ccc(Cl)c(Cl)c2)cc1 4.19%, Cc1ccc(C(C)C)c(OCC(=O)Nc2cccc(NC(=O)c3ccco3)c2)c1 -3.27%, Cn1c(=O)c2c(SCC(=O)N3CCc4ccccc43)nc(-c3ccccc3Cl)nc2n(C)c1=O 1.14%, CCOc1ccc(-n2c(CCC(=O)O)ccc2-c2ccc(Br)cc2)cc1 -3.58%, CCN(c1cc(C)cc(C)c1)S(=O)(=O)c1nnc(NC(=O)c2cccs2)s1 -8.03%, COC(=O)C(Cc1c[nH]c2ccccc12)NC(=O)COc1ccc(Cl)cc1Cl (stereo not given) 6.56%, Cc1cccc(NS(=O)(=O)c2ccc3[nH]c(=O)ccc3c2)c1C -13.4%, CCN(C(=O)Cc1nc(-c2ccc(OC)cc2)no1)c1cccc(Cl)c1 18.1%, O=C(Cn1c(=O)nc(-c2ccccc2)c2ccccc21)Nc1ccc(Cl)c(C(F)(F)F)c1 0.153%, COc1cccc(C2=CC(c3ccc(OC)c(OC)c3OC)n3ncnc3N2)c1 (stereo not given) 8.05%, COc1ccccc1OCCn1c(-c2ccc(Cl)cc2)nc2ccccc2c1=O -22.2%, Cc1oc2ccc(O)c(CN(C)Cc3ccccc3)c2c1C(=O)Nc1cccc(C(F)(F)F)c1 -9.73%, COc1ccc(C(=O)c2cn(CC(=O)Nc3ccc4c(c3)OCCO4)c3ccc(OC)cc3c2=O)cc1 16.6%, CCC(C)NC(=O)Cn1ncc2c([nH]c3ccc(C)cc32)c1=O (stereo not given) -2.69%, O=C(Nc1nc2n(n1)C(c1ccccc1)C=C(c1ccccc1)N2)c1ccc(Cl)c([N+](=O)[O-])c1 (stereo not given) 1.23%, CCOC(=O)c1ccc(N2C(=O)c3n[nH]c(-c4cccs4)c3C2c2ccc(C(C)(C)C)cc2)cc1 (stereo not given) 8.31%, CCOc1ccccc1NC(=O)Cn1c(=O)n(Cc2ccccc2)c(=O)c2c(C)c(C)sc21 -7.59%

outcome, inactive:
CCOC(=O)c1cnc2c(OC)cccc2c1Nc1cccc(O)c1, COc1ccc(NC(=O)CSc2nc(-c3ccccc3)nc3cc(=O)[nH]n23)cc1, COc1ccccc1-c1cc(C(=O)Nc2sc3c(c2C#N)CCCC3)no1, CCOc1ccc(CCNC(=O)CN2C(=O)C(CC)Oc3ccccc32)cc1OCC (stereo not given), O=C(Nc1ccc(Br)cc1)C1CCN(c2cnccn2)CC1, CCC(C(=O)N1CCN(c2ccccc2)CC1)n1nc(C)n2c(cc3sccc32)c1=O (stereo not given), CCN(CC)S(=O)(=O)c1nnc(NC(=O)COc2ccccc2Cl)s1, CCOc1ccc(C(=O)Nc2cccc(NC(=O)c3ccco3)c2)cc1Cl, COc1ccc(Cn2c(=O)[nH]c3cc(C(=O)N4CCN(c5cc(C)ccc5C)CC4)ccc3c2=O)cc1, Cc1ccc(NC(=O)Cn2c(=O)n(CCCCCC(=O)NCc3ccc(F)cc3)c(=O)c3sccc32)cc1C, CCCOc1ccc(-c2nn(-c3ccccc3)cc2C2NC(=O)NC(C)=C2C(=O)OC(C)C)cc1 (stereo not given), Cc1ccc(S(=O)(=O)C(CNC(=O)C(=O)NCc2ccc(Cl)cc2)c2cccs2)cc1 (stereo not given), CCC(=O)N1c2ccc(S(=O)(=O)N3CCN(c4ccccc4)CC3)cc2CC1C (stereo not given), Cc1ccc(CNC(=O)C2CCCN(S(=O)(=O)c3ccc4c(c3)oc(=O)n4C)C2)cc1 (stereo not given), Cc1ccc(S(=O)(=O)c2cn(CC(=O)Nc3ccc(C)c(Cl)c3)c3ccc(C)cc3c2=O)cc1, Cc1ccc(NCc2cccn2-c2nnc(N3CCC(C(=O)NC(C)C)CC3)s2)cc1, CN(C)CCNC(=O)c1ccc(-n2c(-c3ccccc3)cc3c2CCCC3)cc1, Cc1ccc(-c2ccc(=O)n(Cc3cc(C)ccc3C)n2)cc1, CCC(CC)C(=O)NC1CC(=O)N(c2ccc3c(c2)OCCO3)C1 (stereo not given), Cc1nc(-c2ccccc2)sc1-c1ccc(SCC(=O)NCc2ccc(F)cc2)nn1, CCOc1ccc(-n2c(SCC(=O)N3CCCC3)nc3c([nH]c4ccccc43)c2=O)cc1, CCc1ccc(CNC(=O)CCSCc2ccccc2F)cc1, COc1cc(NC(=O)Cn2c(=O)oc3cc(S(=O)(=O)N4CCCCCC4)ccc32)cc(OC)c1
